Data as given in a collection of fitness landscapes (doi:10.1016/j.celrep.2020.107928).
Over roughly 81,000 sequences, “one-hybrid fitness for binding NBS DNA” has its median near -0.1; the highest 2% begin near 0.36. Some of the results follow.

B1: Caulobacter ParB omega fusion; a variant is named by its letters at X, in order, B8GW30 (parent)
chain: MESVVVGEPGMSEGRRGLGRGLSALLGEVDAAPAQAPGEQLGGSREAPIEILQRNPDQPRRTFREEDLEDLSNSIREKGVLQPILVRPSPDTAGEYQIVAGERAWRAAQRAGLKTVPIMVRELDDLAVLEIGIIENVQRADLNVLEEALSYKVLMEKFERTQENIAQTIGKSXSHVANXMRLLXLPDEVQSYLVSGELTAXHARAIAAAADPVALAKQIIEGGLSVRETEALARKAPNLSAGKSKGGRPPRVKDTDTQALESDLSSVLGLDVSIDHRGSTGTLTITYATLEQLDDLCNRLTRGI

Variants of: B1
Assay: one-hybrid fitness for binding NBS DNA (the Noc-binding site; scaled: cognate 1, non-cognate 0); higher = stronger binding
Conditions: with NBS DNA site
Procedure, shortened: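 Fitness is the rescaled log change in variant-to-wild-type read ratio, measured by Illumina sequencing of plasmids before and after bacterial one-hybrid selection. The scale puts cognate at 1 and non-cognate at 0. Selection of Caulobacter ParB libraries, four specificity codons randomised, took place in E. coli USO with a HIS3 reporter, site 19 bp from the promoter, over 48 hours at 37°C on M9-minus-histidine with 0.1 mM IPTG and 5 mM 3-AT.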

Variant | one-hybrid fitness for binding NBS DNA
HSVS | ≤ 0.2
FAKG | ≤ 0.2
RKWG | ≤ 0.2
RCLQ | ≤ 0.2
YNIR | ≤ 0.2
KEKV | ≤ 0.2
MDIE | ≤ 0.2
QYDT | 0.272
TRCF | ≤ 0.2
VFVG | ≤ 0.2
PTVL | ≤ 0.2
RPNM | ≤ 0.2
LHMY | ≤ 0.2
GQRY | ≤ 0.2
RVGY | ≤ 0.2
EKIT | ≤ 0.2
SPGM | ≤ 0.2
QTSS | 0.522
SVRG | ≤ 0.2
AHAG | ≤ 0.2
VFFS | ≤ 0.2
CFTG | ≤ 0.2
CTLR | ≤ 0.2
CQIC | ≤ 0.2
CENL | ≤ 0.2
SCYT | ≤ 0.2

Variant | one-hybrid fitness for binding NBS DNA
CKHS | ≤ 0.2
SIFM | ≤ 0.2
GPMG | ≤ 0.2
GSPW | ≤ 0.2
ADSI | ≤ 0.2
QAGE | ≤ 0.2
FMNF | ≤ 0.2
ALPC | ≤ 0.2
AHIL | ≤ 0.2
RQEH | ≤ 0.2
TKQR | ≤ 0.2
LTLS | ≤ 0.2
AGPV | ≤ 0.2
ESHV | ≤ 0.2
HAPH | ≤ 0.2
HFGL | ≤ 0.2
AGWP | ≤ 0.2
QLEI | ≤ 0.2
AAAN | ≤ 0.2
MGFR | ≤ 0.2
GRYR | ≤ 0.2
RRIC | 0.399
EDHT | ≤ 0.2
IVVL | ≤ 0.2
DTHY | ≤ 0.2
PRIQ | ≤ 0.2

Variant | one-hybrid fitness for binding NBS DNA
QKTI | ≤ 0.2
AYPI | ≤ 0.2
RDNT | ≤ 0.2
VEHV | ≤ 0.2
FMKR | 0.226
HDQG | ≤ 0.2
KKRV | ≤ 0.2
HAGW | ≤ 0.2
CGWR | ≤ 0.2
KRIA | ≤ 0.2
NVHW | ≤ 0.2
RILV | ≤ 0.2
STYP | ≤ 0.2
KVMS | ≤ 0.2
TDKS | ≤ 0.2
PASN | ≤ 0.2
SEFS | ≤ 0.2
QILH | ≤ 0.2
FPAT | ≤ 0.2
PFWN | ≤ 0.2
QQRN | 0.466
YTLT | ≤ 0.2
HASE | ≤ 0.2
LPFI | ≤ 0.2
DWNA | ≤ 0.2
PYGR | ≤ 0.2

Variant | one-hybrid fitness for binding NBS DNA
APLQ | ≤ 0.2
NALN | ≤ 0.2
DLCC | ≤ 0.2
TLAI | ≤ 0.2
RPLC | ≤ 0.2
YNRC | ≤ 0.2
RNMI | ≤ 0.2
RNGL | ≤ 0.2
VRAE | ≤ 0.2
HPED | ≤ 0.2
KGWT | ≤ 0.2
RIVP | ≤ 0.2
ELDV | ≤ 0.2
QGDI | ≤ 0.2
RPSP | ≤ 0.2
DVVT | ≤ 0.2
IPVI | ≤ 0.2
FAPT | ≤ 0.2
PGPS | ≤ 0.2
PPVL | ≤ 0.2
LHAC | ≤ 0.2
TRCH | ≤ 0.2
SICT | ≤ 0.2
RVMG | ≤ 0.2
NVYF | ≤ 0.2
FVEG | ≤ 0.2

Variant | one-hybrid fitness for binding NBS DNA
APWS | ≤ 0.2
CPRE | ≤ 0.2
HCRY | ≤ 0.2
SQDC | ≤ 0.2
DLLA | ≤ 0.2
QTCF | ≤ 0.2
MAEN | ≤ 0.2
KISE | ≤ 0.2
SGMW | ≤ 0.2
IRYW | ≤ 0.2
NLSK | ≤ 0.2
RDDE | ≤ 0.2
LDEG | ≤ 0.2
ADLA | ≤ 0.2
DATC | ≤ 0.2
LQRA | ≤ 0.2
RKKS | 0.653
PNFS | ≤ 0.2
TMHS | ≤ 0.2
DGPI | ≤ 0.2
APIH | ≤ 0.2
NKVG | ≤ 0.2
SELY | ≤ 0.2
GERD | ≤ 0.2
MRDT | ≤ 0.2
KQSG | ≤ 0.2

Variant | one-hybrid fitness for binding NBS DNA
FIQR | ≤ 0.2
RIDG | ≤ 0.2
CKIG | ≤ 0.2
SPTS | ≤ 0.2
RWSE | ≤ 0.2
YAVI | ≤ 0.2
ENKN | ≤ 0.2
MRPR | ≤ 0.2
PHVV | ≤ 0.2
NLGR | ≤ 0.2
QTIT | 0.522
DPKS | ≤ 0.2
RCYC | ≤ 0.2
RKDV | ≤ 0.2
MTVA | ≤ 0.2
LSFS | ≤ 0.2
NHAS | ≤ 0.2
FFAG | ≤ 0.2
YPLK | ≤ 0.2
RRPI | ≤ 0.2
EVDT | ≤ 0.2
RDET | ≤ 0.2
NMRA | ≤ 0.2
